Measured values published in the antibiotic and cytotoxicity screens of Wong et al. (2023).
The list shows a part of the results.

The compounds below were run on HepG2 (assay: cytotoxicity call (relative viability < 0.9)). Settings: 10 µM.

Compound	cytotoxicity call
C[C@@H]1CN([C@H](C)CO)C(=O)c2cc(NC(=O)C3CCCCC3)ccc2O[C@H]1CN(C)S(=O)(=O)c1cn(C)cn1	inactive
C[C@@H]1CN([C@@H](C)CO)C(=O)Cc2cc(NC(=O)c3ccncc3)ccc2O[C@H]1CN(C)Cc1ccc(Oc2ccccc2)cc1	active
O=C(C[C@H]1CC[C@@H](NC(=O)c2cccnc2)[C@@H](CO)O1)NCCN1CCCCC1	inactive
C[C@H]1CCCCO[C@@H](CN(C)C(=O)Nc2ccc(C(F)(F)F)cc2)[C@@H](C)CN([C@@H](C)CO)C(=O)c2cc(N(C)C)ccc2O1	inactive
C[C@@H]1CN([C@@H](C)CO)C(=O)c2cc(NC(=O)Nc3cccc4ccccc34)ccc2O[C@H]1CN(C)Cc1ccc(Cl)c(Cl)c1	inactive
C[C@@H]1CN([C@H](C)CO)C(=O)c2cccc(NS(=O)(=O)c3cn(C)cn3)c2O[C@H]1CN(C)S(=O)(=O)c1cccs1	inactive
C[C@H](CO)N1C[C@H](C)[C@@H](CN(C)C(=O)Nc2ccc(C(F)(F)F)cc2)OCCCC[C@H](C)Oc2ccc(NS(=O)(=O)c3ccccc3)cc2C1=O	inactive
C[C@@H]1CCCCO[C@@H](CN(C)Cc2ccncc2)[C@@H](C)CN([C@H](C)CO)C(=O)c2cc(NC(=O)CCC(F)(F)F)ccc2O1	inactive
C[C@@H]1CN([C@H](C)CO)C(=O)c2cccc(NC(=O)Nc3ccc(F)cc3)c2O[C@H]1CN(C)C(=O)Nc1ccc(C(F)(F)F)cc1	inactive
CCS(=O)(=O)Nc1ccc2c(c1)C(=O)N(C)C[C@H](OC)[C@@H](C)CN(Cc1nccs1)[C@H](C)CO2	inactive
C[C@H]1CN([C@@H](C)CO)S(=O)(=O)c2ccc(C#Cc3ccc(F)cc3)cc2O[C@H]1CN(C)CC1CC1	inactive
C[C@H](CO)N1C[C@H](C)[C@H](CN(C)S(=O)(=O)c2ccccc2)OCCCC[C@H](C)Oc2ccc(NS(=O)(=O)c3cn(C)cn3)cc2C1=O	inactive
CC(C)(C)c1ccc(NC(=O)c2ccc(C(C)(C)C)s2)cc1	inactive
Cc1noc(C)c1NC(=O)Nc1ccc2c(c1)C(=O)N([C@@H](C)CO)C[C@H](C)[C@@H](CN(C)Cc1ccccc1)OCCCC[C@H](C)O2	inactive
C[C@H](CO)N1C[C@H](C)[C@@H](CN(C)Cc2ccncc2)Oc2c(NS(=O)(=O)c3cn(C)cn3)cccc2C1=O	inactive
C[C@H](CO)N1C[C@H](C)[C@@H](CN(C)Cc2ccc(Cl)c(Cl)c2)Oc2c(NS(=O)(=O)c3ccccc3)cccc2C1=O	active
C[C@@H]1CCCCO[C@H](CN(C)C(=O)c2ccccc2)[C@@H](C)CN([C@H](C)CO)C(=O)c2cc(NC(=O)CCC(F)(F)F)ccc2O1	inactive
C[C@@H]1CN([C@H](C)CO)C(=O)c2cc(NC(=O)Nc3ccc(C(F)(F)F)cc3)ccc2O[C@@H](C)CCCCO[C@@H]1CN(C)S(=O)(=O)c1cn(C)cn1	inactive
C[C@H]1CN([C@@H](C)CO)C(=O)CCCn2nncc2CO[C@H]1CN(C)S(=O)(=O)c1ccc(Oc2ccccc2)nc1	inactive
O=C(C[C@H]1NC(=O)NC1=O)Nc1ccccc1	inactive
Cc1ccc(S(=O)(=O)N(C)C[C@H]2Oc3ccc(NC(=O)C4CC4)cc3C(=O)N([C@@H](C)CO)C[C@H]2C)cc1	inactive
Cc1noc(C)c1NC(=O)N(C)C[C@@H]1Oc2c(NC(=O)NC(C)C)cccc2C(=O)N([C@H](C)CO)C[C@@H]1C	inactive
Cc1noc(C)c1NC(=O)N(C)C[C@H]1Oc2ccc(NC(=O)Nc3cccc4ccccc34)cc2CC(=O)N([C@@H](C)CO)C[C@H]1C	inactive
OCCN1CCCNCC1	inactive
[O-]/[N+](=N\O[C@H]1O[C@H](CO)[C@@H](O)[C@H](O)[C@@H]1O)N1CCCC1	inactive
C[C@H]1CN([C@@H](C)CO)C(=O)c2cccc(NC(=O)Nc3ccc(C(F)(F)F)cc3)c2O[C@H]1CN(C)C(=O)Nc1ccc(F)cc1	active
Cc1noc(C)c1S(=O)(=O)Nc1cccc2c1O[C@H](CN(C)S(=O)(=O)c1cccs1)[C@H](C)CN([C@@H](C)CO)C2=O	inactive
C[C@H](CO)N1C[C@H](C)[C@@H](CN(C)C(=O)Nc2ccc3c(c2)OCO3)OCCCC[C@H](C)Oc2ccc(NC(=O)Cc3ccccc3)cc2C1=O	inactive
C[C@H]1CN([C@@H](C)CO)C(=O)c2cc(C#CCN(C)C)cnc2O[C@@H]1CN(C)C(=O)CCN1CCCCC1	inactive
C[C@H](CO)N1C[C@H](C)[C@@H](CN(C)Cc2ccc(Oc3ccccc3)cc2)Oc2ccc(NC(=O)Nc3ccc(F)cc3)cc2CC1=O	active
